# Results taken from the antibiotic and cytotoxicity screens of Wong et al. (2023).
# This is one part of the list.
# Tests used:
# [1] = tested on: HSkMC (human skeletal muscle cells); experiment: cytotoxicity call (relative viability < 0.9); details: 10 µM
# [2] = tested on: HepG2; experiment: cytotoxicity call (relative viability < 0.9); details: 10 µM
# [3] = tested on: S. aureus RN4220; experiment: growth inhibition call (relative growth <= 0.2); details: 50 µM
Structure (SMILES),cytotoxicity call [1],cytotoxicity call [2],growth inhibition call [3]
CC(C)NC(=O)N(C)C[C@H]1OCCCC[C@@H](C)Oc2ccc(NC(=O)Nc3ccccc3)cc2C(=O)N([C@@H](C)CO)C[C@H]1C,inactive,inactive,inactive
C[C@H]1CCCCO[C@H](CN(C)S(=O)(=O)c2ccc(Cl)cc2)[C@@H](C)CN([C@@H](C)CO)C(=O)c2cc(NS(=O)(=O)c3cccs3)ccc2O1,inactive,inactive,inactive
COCC#Cc1ccc2c(c1)O[C@@H](CN(C)C(=O)C1CCCCC1)[C@H](C)CN([C@H](C)CO)S2(=O)=O,inactive,inactive,inactive
COC(=O)C[C@@H]1CC[C@H]2[C@@H](COC[C@@H](O)CN2S(=O)(=O)c2ccc(F)cc2)O1,inactive,inactive,inactive
CO[C@H]1O[C@H](CO)[C@@H](OC(=O)Nc2cccc(F)c2)[C@H](OC(=O)Nc2ccccc2-c2ccccc2)[C@H]1OC(=O)Nc1ccccc1-c1ccccc1,active,active,inactive
C[C@H]1CN([C@@H](C)CO)S(=O)(=O)c2ccc(C#Cc3cccnc3)cc2O[C@@H]1CN(C)C(=O)Nc1ccc2c(c1)OCO2,inactive,inactive,inactive
COC[C@H]1CNN1C(=O)c1cc(C)oc1C,inactive,inactive,inactive
Nc1ccc(S(=O)(=O)NC(=O)c2ccccc2)cc1,inactive,inactive,inactive
COC(=O)c1c2oc(c1C(=O)OC)C(=O)N(C)Cc1cn(nn1)C[C@@H](C)NC(=O)N[C@H](COC(=O)NCCCCCC(=O)NO)CC2,inactive,inactive,inactive
CC(=O)Nc1ccc(CN(C)c2c(C)nc3ccc(C(=O)N4CCN(C(=O)c5ccco5)CC4)cn23)cc1,inactive,inactive,inactive
Cc1noc(C)c1NC(=O)Nc1cccc2c1O[C@H](CN(C)C(=O)Nc1cccc3ccccc13)[C@@H](C)CN([C@@H](C)CO)C2=O,inactive,inactive,inactive
C[C@H]1CN([C@@H](C)CO)C(=O)c2cc(NC(=O)Nc3ccc4c(c3)OCO4)ccc2O[C@H]1CN(C)Cc1ccc(Oc2ccccc2)cc1,inactive,inactive,inactive
COc1cccc(CNc2nn[nH]n2)c1OC,inactive,inactive,inactive
C[C@H]1CN([C@@H](C)CO)C(=O)CCCn2nncc2CO[C@@H]1CN(C)C(=O)Nc1ccc(N2CCN(C)CC2)cc1,inactive,inactive,inactive
C[C@@H]1CCCCO[C@@H](CN(C)Cc2ccncc2)[C@H](C)CN([C@@H](C)CO)C(=O)c2cc(NC(=O)c3ccccc3)ccc2O1,inactive,inactive,inactive
COc1ccc(NC(=O)N(C)C[C@H]2Oc3c(NS(C)(=O)=O)cccc3C(=O)N([C@H](C)CO)C[C@H]2C)cc1,inactive,inactive,inactive
C[C@H]1CN([C@@H](C)CO)C(=O)c2cc(NC(=O)CCCN(C)C)ccc2O[C@@H]1CN(C)S(=O)(=O)c1ccc(Cl)cc1,inactive,inactive,inactive
COc1ccc(CN(C)C[C@H]2OCCCC[C@H](C)Oc3ccc(NS(=O)(=O)c4ccc(C)cc4)cc3C(=O)N([C@H](C)CO)C[C@@H]2C)cc1,inactive,inactive,inactive
C[N+](C)(C)CCO,inactive,inactive,inactive
Cc1ccc(S(=O)(=O)Nc2ccc3c(c2)C(=O)N([C@H](C)CO)C[C@H](C)[C@H](CN(C)Cc2ccc(C(=O)O)cc2)OCCCC[C@@H](C)O3)cc1,inactive,inactive,inactive
C[C@@H]1CN([C@@H](C)CO)C(=O)Cc2cc(NC(=O)c3ccncc3)ccc2O[C@H]1CN(C)C(=O)Nc1ccc2c(c1)OCO2,inactive,inactive,inactive
C[C@H]1CCCCO[C@H](CN(C)Cc2ccc(C(F)(F)F)cc2)[C@@H](C)CN([C@@H](C)CO)C(=O)c2cc(NC(=O)CCC(F)(F)F)ccc2O1,inactive,active,inactive
COc1ccc(cc1)CN1C[C@]2(CCN(CC2)Cc2ccccc2OC)c2c([nH]c3cc(ccc23)OC)[C@@H]1CO,inactive,inactive,inactive
CN(C)C(=O)C[C@@H]1CC[C@@H](NC(=O)C2CCOCC2)[C@@H](CO)O1,inactive,inactive,inactive
C[C@H]1CN([C@@H](C)CO)C(=O)c2cccc(NC(=O)Nc3ccc(F)cc3)c2O[C@@H]1CN(C)C(=O)Nc1cccc2ccccc12,inactive,inactive,inactive
C[C@H]1CN([C@@H](C)CO)C(=O)Cc2cc(NS(=O)(=O)c3ccc(Cl)cc3)ccc2O[C@H]1CN(C)Cc1ccc(C(F)(F)F)cc1,active,active,inactive
